In PubChem BioAssay AID504832 (National Center for Advancing Translational Sciences (NCATS), 2011):
The whole screen tested about 310,000 compounds, of which about 18,000 (5.8%) were called active. The inconclusive results got no clear call from the source; some entries with a clear call stand among them for comparison. Calls come from the whole dose curve; as a rule, active = well fitted inhibition curve with a large enough effect; inconclusive = small, poorly fitted or top-dose-only effect, or another doubt; inactive = no such curve, though single readings can be large or run the other way. Potencies of inconclusive entries are left out as doubtful fits.

Assay: Primary qHTS for delayed death inhibitors of the malarial parasite plastid, 48 hour incubation
Details: P. falciparum luciferase growth in erythrocytes; series mostly up to 28.7 µM; activity change, negative = inhibition: at the top concentration
Summary of the method: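 Firefly luciferase activity from engineered P. falciparum reports growth; inhibitors lower the luminescent signal. Cultures contained 2% hematocrit erythrocytes at 0.1% final parasitemia.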
% is set by controls: 0 for no effect and ±100 for the full control effect; potency is the fitted concentration of half-maximal effect; tags give direction and shape of the fitted curve.

With `N#C/C(=C\c1cccc(O)c1)C(=O)N1CCCCC1` as the compound, how does the Potency read?
Its Potency is inconclusive [inhibitor, single point].

With `C=C1N(c2ccccc2)C(=O)OC1(C)C` as the compound, how does the “activity change, negative = inhibition” value read?
The value was inactive: 10.5%.

For `O=C1C=C(Nc2ccc(Cl)cc2)CC(c2ccccc2)C1` (configuration not stated), which Potency is on record?
Its Potency is inconclusive [inhibitor, partial curve].

Which Potency does the source give for `COc1ccccc1Nc1nc(-c2c(C)nc3ncccn23)cs1` here?
Its Potency is inconclusive [inhibitor, single point].

For `COc1cc(OC)c(NC(=O)/C=C/C(=O)O)cc1Cl`, which Potency is on record?
The Potency was inconclusive [inhibitor, full curve, poor fit].

With `Nc1nc(=S)n(-c2ccccc2)[nH]1` as the compound, how does the “activity change, negative = inhibition” value read?
The value was inactive: 44.9%.

For `CN(C)S(=O)(=O)c1ccc(SCC(=O)N2CC(=O)Nc3ccccc32)nc1`, which Potency is on record?
Its Potency is inconclusive [inhibitor, partial curve].

Which Potency does the source give for `CCC1=Nc2cc(C(=O)NCCN3CCCC3)ccc2Sc2ccc(C)cc21` here?
The Potency was active: 10.4 µM.

With `COc1cc2c(C(=O)O)c(C)n(C)c2c2ccccc12` as the compound, how does the activity change, negative = inhibition read?
The activity change, negative = inhibition was inactive: 15.4% [at 0.00184 µM].

With `CCC(C)n1c(O)c(/C=N/Nc2ccccc2)c(=O)[nH]c1=S` (configuration not stated) as the compound, how does the “activity change, negative = inhibition” value read?
The value was inactive: 21.2%.

Which “activity change, negative = inhibition” value does the source give for `Cc1ccccc1C(C(=O)NC1CCCCC1)N(C(=O)c1ccccn1)c1cccnc1` (configuration not stated) here?
Its value is inactive: 11.9%.

With `COc1cnc(-c2ccccn2)nc1NC(C)C` as the compound, how does the Potency read?
Its Potency is active: 14.7 µM.

Which Potency does the source give for `CC(C)(C)c1cc(C(=S)N2CCCC2)cc(C(C)(C)C)c1O` here?
Its Potency is inconclusive [inhibitor, single point].

Which Potency does the source give for `Cc1nc(SC(C)C(=O)NCC2CCCO2)c2cc(-c3ccccc3)sc2n1` (configuration not stated) here?
Its Potency is inconclusive [inhibitor, partial curve, poor fit].

With `Cc1onc(-c2c(Cl)cccc2Cl)c1NC(=O)NN(C)c1ccc([N+](=O)[O-])cn1` as the compound, how does the Potency read?
The Potency was inconclusive [inhibitor, single point].

With `Cc1cccc(-c2cc(C(=O)Nc3cccnc3)c3ccccc3n2)c1` as the compound, how does the Potency read?
Its Potency is inconclusive [inhibitor, full curve].

With `CSc1ncccc1C(=O)OCc1ccccc1` as the compound, how does the “activity change, negative = inhibition” value read?
The value was inactive: 25.8%.

Which “activity change, negative = inhibition” value does the source give for `CCC(=O)Nc1cccc(NC(=O)COc2ccc(OC)cc2)c1` here?
Its value is inactive: 20.1%.

Which Potency does the source give for `O=C1CC(c2ccc(O)c(O)c2)Oc2c1ccc(O)c2O` (configuration not stated) here?
Its Potency is inconclusive [inhibitor, full curve, poor fit].

With `CN(C)CCCNc1oc(-c2ccc(Cl)cc2)nc1C#N` as the compound, how does the Potency read?
The Potency was inconclusive [inhibitor, single point].

For `CCOC(=O)C1CCN(C(=O)c2ccccc2Oc2ccccc2)CC1`, which Potency is on record?
The Potency was inconclusive [inhibitor, partial curve].

With `N/C(=N\OC(=O)c1ccc(Cl)cc1)c1cccnc1` as the compound, how does the “activity change, negative = inhibition” value read?
The value was inactive: 56.4%.

For `Cc1ccc(CN2CCC(C(=O)Nc3ccc(Oc4cccnc4)cc3)CC2)cc1`, which Potency is on record?
The Potency was active: 10.4 µM.

For `CC(=O)Oc1ccc2occ(/C=N/c3cc(=O)[nH]c(=S)[nH]3)c(=O)c2c1`, which Potency is on record?
Its Potency is inconclusive [inhibitor, partial curve].

For `CCCC(=O)NC(=S)Nc1cccc(C(C)=O)c1`, which “activity change, negative = inhibition” value is on record?
The value was inactive: 30.2%.

Which activity change, negative = inhibition does the source give for `CCN(c1ccc(OC)cc1)S(=O)(=O)c1csc(C(N)=O)c1` here?
The activity change, negative = inhibition was inactive: -20.5% [at 0.00184 µM].

With `CCOc1ccc(CCNC(=O)Cn2cccc2C(=O)c2ccccc2)cc1OCC` as the compound, how does the Potency read?
The Potency was inconclusive [inhibitor, single point].

For `CCOc1ccc(NC(=O)C2CCCN(C)C2)cc1` (configuration not stated), which “activity change, negative = inhibition” value is on record?
The value was inactive: -0.281%.

For `COc1cccc(CN(C)Cc2c(O)ccc3ccccc23)c1`, which Potency is on record?
Its Potency is inconclusive [inhibitor, partial curve, poor fit].

With `NC(=O)CCC(NS(=O)(=O)c1ccc(Cl)cc1)C(=O)NCc1ccccc1` (configuration not stated) as the compound, how does the “activity change, negative = inhibition” value read?
The value was inactive: -7.77%.

Which Potency does the source give for `Cc1cc(C(=O)CSc2nnc(-c3ccncc3)n2-c2ccccc2)c(C)n1C` here?
Its Potency is active: 14.7 µM.

Which Potency does the source give for `Cc1ccc(S(=O)(=O)NCCc2cccs2)cc1` here?
The Potency was inconclusive [inhibitor, full curve, poor fit].

Which “activity change, negative = inhibition” value does the source give for `Cc1nnc(SCc2c(Cl)cccc2Cl)n(N)c1=O` here?
Its value is inactive: -6.02%.

For `CCCN(CC(=O)Nc1ccc(F)c(F)c1F)C(=O)c1ccc2c(=O)n3c(nc2c1)CCC3`, which Potency is on record?
Its Potency is inconclusive [inhibitor, partial curve, poor fit].

Which Potency does the source give for `COCCNC(=S)N/N=C(\C)c1ccccc1F` here?
The Potency was inconclusive [inhibitor, single point].

With `O=C(C1CCCN(S(=O)(=O)c2ccc(Br)cc2)C1)N1CCN(Cc2ccccc2)CC1` (configuration not stated) as the compound, how does the Potency read?
The Potency was active: 6.57 µM.

Which “activity change, negative = inhibition” value does the source give for `CN1CCCN(Cc2nc(-c3cccc(C(F)(F)F)c3)no2)CC1` here?
Its value is inactive: -1.56%.

For `CCOC(=O)c1cnc2c(C)cccc2c1NCCCN1CCOCC1`, which Potency is on record?
The Potency was inconclusive [inhibitor, full curve, poor fit].

With `CCN(CC)C(=O)c1ccc(NC(=O)c2cc(-n3cnnc3)ccc2Cl)cc1` as the compound, how does the Potency read?
The Potency was inconclusive [inhibitor, single point].

For `CCN(CC)C(=O)CSc1nc(O)c(Cc2ccccc2)c(=O)n1-c1ccc(C)cc1`, which Potency is on record?
Its Potency is inconclusive [inhibitor, single point].

For `COCCNC(=O)N1[C@H]2CC[C@@H]1C(C(=O)OC)=C(c1ccc(OC(F)(F)F)cc1)C2`, which Potency is on record?
Its Potency is inconclusive [inhibitor, partial curve, poor fit].

For `CCOc1cccc(NC(=O)c2ccc(S(=O)(=O)N(C)C)cc2)c1`, which Potency is on record?
Its Potency is inconclusive [inhibitor, single point].

Which Potency does the source give for `N/C(=N\OC(=O)c1cccc2ccccc12)c1ccncc1` here?
The Potency was inconclusive [inhibitor, single point].

For `O=C(CSc1nnc(-c2ccc(Cl)cc2)n1Cc1ccco1)c1cccs1`, which Potency is on record?
The Potency was inconclusive [inhibitor, single point].

With `O=C(Nc1ccc(F)cc1F)c1cc2nc3c(c(C(F)(F)F)n2n1)CCCC3` as the compound, how does the “activity change, negative = inhibition” value read?
The value was inactive: 129%.

With `Cc1cc(=O)n2c(n1)NC(Nc1cccc(C)c1C)=NC2c1ccccc1` (configuration not stated) as the compound, how does the “activity change, negative = inhibition” value read?
Its value is inactive: -4.57%.

With `COC(=O)Nc1ccc(S(=O)(=O)Nc2cccc3ccccc23)cc1` as the compound, how does the Potency read?
The Potency was inconclusive [inhibitor, single point].

For `Cc1c(OCC(=O)NCCCn2ccnc2)ccc2c3c(c(=O)oc12)CCC3`, which “activity change, negative = inhibition” value is on record?
Its value is inactive: -10.8%.

Which Potency does the source give for `CCOC(=O)C(=O)Cc1nc2ccccc2s1` here?
Its Potency is inconclusive [inhibitor, full curve, poor fit].

With `COc1ccc(C2c3[nH]c4ccccc4c3CCN2CCCn2cccn2)c(F)c1` (configuration not stated) as the compound, how does the Potency read?
Its Potency is inconclusive [inhibitor, single point].

For `Cc1ccc(NC(=O)c2cccc(NC3=NC4CS(=O)(=O)CC4S3)c2)cc1` (configuration not stated), which “activity change, negative = inhibition” value is on record?
The value was inactive: -3.68%.

With `CC(C)C(C(=O)NCc1ccco1)N(C(=O)CNS(=O)(=O)c1ccccc1)C1CCCC1` (configuration not stated) as the compound, how does the Potency read?
Its Potency is inconclusive [inhibitor, single point].

With `CCC(C)C(=O)Nc1ccccc1N1CCN(c2ccc(F)cc2)CC1` (configuration not stated) as the compound, how does the Potency read?
The Potency was inconclusive [inhibitor, partial curve, poor fit].

With `O=C1COc2ccc(C(=O)COC(=O)c3ccco3)cc2N1` as the compound, how does the Potency read?
The Potency was inconclusive [inhibitor, single point].

Which Potency does the source give for `Cc1nn(CCC(=O)NCCc2ccccc2Cl)c(=O)c2nn(-c3ccccc3)c(C)c12` here?
Its Potency is inconclusive [inhibitor, partial curve, poor fit].

Which Potency does the source give for `CC1(C)CC(CNCCC(c2ccc(F)cc2)c2ccco2)CCO1` (configuration not stated) here?
The Potency was inconclusive [inhibitor, single point].

For `Cc1cc(OCCCN2CCN(Cc3ccccc3)CC2)ccc1[N+](=O)[O-]`, which “activity change, negative = inhibition” value is on record?
The value was inactive: 7.77%.

With `COc1cccc(C(=O)OCC(=O)Nc2ccccc2N2CCOCC2)c1` as the compound, how does the “activity change, negative = inhibition” value read?
Its value is inactive: 15.7%.

With `c1cc2c(c(NC3=NCCN3)c1)CCCC2` as the compound, how does the Potency read?
Its Potency is inconclusive [inhibitor, single point].

For `NS(=O)(=O)c1ccc(NC(=O)Cn2nc(C(=O)O)c3ccccc3c2=O)cc1`, which “activity change, negative = inhibition” value is on record?
Its value is inactive: 29.5%.

Which “activity change, negative = inhibition” value does the source give for `COCCNC(=O)c1ccc(Cl)c(S(=O)(=O)Nc2cccc(C)c2C)c1` here?
Its value is inactive: -18%.

Which Potency does the source give for `O=C(NCc1ccc2c(c1)OCO2)C1CCCN1C(=O)Nc1cccc(F)c1` (configuration not stated) here?
Its Potency is inconclusive [inhibitor, single point].

For `CN(C)c1ccnc2sc(C(=O)NCc3ccccc3)c(N)c12`, which Potency is on record?
Its Potency is inconclusive [inhibitor, single point].

With `O=S(=O)(NCC(c1ccco1)N1CCCCC1)c1ccccc1C(F)(F)F` (configuration not stated) as the compound, how does the Potency read?
The Potency was inconclusive [inhibitor, single point].

With `CC(C)(C)n1nnnc1CN1C2CCC1CC(NC(=O)Nc1ccccc1)C2` (configuration not stated) as the compound, how does the Potency read?
Its Potency is inconclusive [inhibitor, partial curve, poor fit].

For `COc1ccccc1-c1cc2ccccc2[nH]1`, which “activity change, negative = inhibition” value is on record?
The value was inactive: 52.5%.

Which Potency does the source give for `Cc1cc(C)cc(C(=O)N(Cc2ccco2)c2c(N)n(Cc3ccccc3)c(=O)[nH]c2=O)c1` here?
Its Potency is inconclusive [inhibitor, single point].

With `COc1cc(NC(=O)Nc2cc(C)on2)cc(OC)c1OC` as the compound, how does the “activity change, negative = inhibition” value read?
Its value is inactive: 1.85%.

Which Potency does the source give for `CCOc1ccc(CCNC(=O)C2CCCN(c3nn4c(=O)cc(C)nc4s3)C2)cc1` (configuration not stated) here?
Its Potency is inconclusive [inhibitor, partial curve].

For `COc1ccc(-c2cc(=O)oc3c(C)c(OCC(=O)NCCCn4ccnc4)ccc23)cc1`, which Potency is on record?
The Potency was inconclusive [inhibitor, single point].

Which Potency does the source give for `COC(=O)C1=C(c2ccc(F)cc2OCc2ccccc2)C[C@@H]2CC[C@H]1N2C(=O)NCc1ccc(C(C)(C)C)cc1` here?
The Potency was inconclusive [inhibitor, full curve].

With `O=C(CCc1c[nH]c2ccccc12)N1CCN(c2ccc(O)cc2)CC1` as the compound, how does the Potency read?
Its Potency is inconclusive [inhibitor, partial curve].
